The supplement of paper PMC10126150
Sequences with one replicate were seen in a single cluster, so their values are uncertain.

tested on: ATP; test: switch fluorescence ratio, 500 uM ATP over buffer (Cy3 cluster intensity, sum of 5 cycles each) (fold (ratio)); higher = stronger signal-on switching upon ATP binding; sequences stand for … in TCGTCGGCAGCGTCAGATGTGTATAAGAGACAGTTTTTTTTTTTTTTTTTTTTTTTTT…TC; conditions: aptamer strand: ATP DNA aptamer (quencher-CACCTGGGGGAGTATTGCGGAGGAAGG + anchor), 100 nM annealed; ATP concentration: 500 uM; one replicate
Procedure, shortened: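 For every switch-domain sequence, the fluorescence ratio is the mean of per-cluster values, each being summed target-cycle Cy3 intensity over summed buffer-cycle Cy3 intensity. Clusters outside 100-1000 RFU were excluded. On a modified Illumina MiSeq flow-cell, the Cy3-labelled switching-strand clusters were annealed to 100 nM quencher-labelled ATP aptamer, imaged in selection buffer and then after 15 min with 500 uM ATP at 22 °C. Five such cycles were run, with NaOH stripping and re-annealing between them.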
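Note: ATP exposure 15 min at 22 °C before imaging.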

| Sequence | switch fluorescence ratio |
| --- | --- |
| AATAATTCAC | 1.05 |
| GGTAGCAATT | 1.9 |
| CGCATAAGA | 1.1 |
| GCTGTTTTAT | 0.982 |
| ATATTAAAGA | 0.987 |
| GATTCGTAAC | 0.995 |
| GTTATTCCTC | 1.09 |
| TTCCCGGCAA | 1.05 |
| AGCGCATACT | 2.47 |
| CTCTTGCGAC | 2.05 |
| AAGTGCATCC | 1.04 |
| ACCCAATAAC | 2.43 |
| GAGTGCGTGG | 0.956 |
| CGAGGAAAAC | 1.09 |
| CTCGGACTGT | 1.03 |
| TAGCGGCTTG | 0.979 |
| ACTTCTAC | 2.33 |
| AGGTATGCAT | 1.04 |
| AGGAGGTCGT | 1 |
| CGGCTTGACG | 0.948 |
| GTGGGTAGTC | 1.09 |
| GGGTCGTTAT | 0.932 |
| TATATTAGTA | 0.965 |
| GATGCCTAC | 1.21 |
| GATTCGATGG | 0.996 |
| TGTGGGCGCA | 1 |

| Sequence | switch fluorescence ratio |
| --- | --- |
| GCAGTGTTGT | 0.973 |
| GGAGAAAT | 1.05 |
| GTTTAAGGCG | 0.993 |
| GCCTGATGAT | 0.955 |
| TAAGGGACAT | 1.01 |
| TGATACAAGA | 1.02 |
| CGACTGTTGT | 0.964 |
| GAACTGGTGC | 1.13 |
| AAACTCAAGA | 1.03 |
| GCTATAGAGC | 1 |
| GCCACCCAGC | 1.05 |
| CTCTATTGCC | 0.948 |
| GGAGATCCGT | 1 |
| TACTCCTAAA | 1.3 |
| AGTAGCTCTT | 1.04 |
| GGCCTGGAAT | 1.01 |
| TCTTAATTTG | 1.01 |
| GATTTCGTGT | 1 |
| ATGCATTAG | 1.03 |
| TAACGTGTTG | 1.02 |
| CCGGGATGAT | 5.31 |
| AAGAAACTTT | 1.02 |
| CGGCTTCCGT | 0.962 |
| GGGTAGAGCA | 0.984 |
| GAACTTACG | 1.32 |
| GGCTAGATTC | 1.01 |

| Sequence | switch fluorescence ratio |
| --- | --- |
| ACAGGCGGTT | 0.955 |
| CTAGGCGACT | 1.01 |
| TTGGGCAATT | 0.993 |
| TACCCATAAC | 1.11 |
| GATTCTTTGG | 0.998 |
| CAGACTGACG | 1.01 |
| ATGCCTGGTA | 0.996 |
| GCTGTACGCC | 1.33 |
| AATGTCCGGA | 1.01 |
| TGATAATGTG | 0.993 |
| CCAATACAGG | 1.22 |
| GCTAGGCTTC | 0.967 |
| AGTAGGACTT | 0.978 |
| AAGACTGCGA | 1.03 |
| GCTTTACA | 1.03 |
| TCGCCGTCCA | 1 |
| TCTAAAACTC | 0.961 |
| TTTTGATGGA | 0.98 |
| GTTCGCTATT | 1.07 |
| CTTTAGGCGG | 0.984 |
| AGTCTCTATT | 1 |
| GAGGCGCCTT | 0.981 |
| GGTACGGATT | 0.987 |
| GCTTAGAT | 1.01 |
| CGTGAACACA | 1.06 |
